{
  "source": "patent US9062037B2",
  "about": "“Tazarotene derivatives” (Stiefel Laboratories, Inc., priority 2009, dated 2015)",
  "key": {"[1]": {"experiment": "Stability in rat plasma at room temperature", "type": "in vitro ADME", "conditions": "in 2 hours", "protocol": "(§1) Tazarotene, tazarotene sulfoxide and tazarotene benzoate were incubated at room temperature with human and rat plasma. The incubation was carried out in duplicate and samples were taken at specific time points for stability analyses (i) rat samples (0 hour, 2 hours and 4 hours) and (ii) human samples (0 hour, 2 hours, 4 hours and 8 hours). Samples were analyzed by LC-MS/MS."}, "[2]": {"experiment": "Stability in human plasma at room temperature", "type": "in vitro ADME", "protocol": "as §1"}, "[3]": {"test_system": "Reconstructed human epidermis (RHE) tissues", "experiment": "RT-qPCR gene expression of K10, K19, filaggrin, K4 and K13 in reconstructed human epidermis (RHE) cultures", "type": "cell-based", "conditions": "2.83 mM in OD/10% DMSO, 6 μl, 72 hours", "protocol": "Reconstructed human epidermis (RHE) tissues were cultured in-house as previously described by Poumay et al. Briefly, polycarbonate culture inserts (12 mm diameter and 0.4 μm pore size, Millipore) were filled with 150 μL of a suspension containing approximately 5×10^5 primary adult human keratinocytes. The inserts received another 500 μL of keratinocyte culture media and were placed in a 6-well plate (1 insert/well) containing 2.5 mL of RHE Growth Media (Epilife media +1.5 mM CaCl2). RHE cultures were incubated at 37° C. in a humidified atmosphere containing 5% CO2, for 24 hours. Subsequently (on Day 0), RHE cultures were exposed to the air-liquid interface by removing the RHE Growth Media from the top of the cultures, and replacing with 1.5 mL/well of RHE Growth Media containing 50 μg/mL vitamin C. Media was changed every other day until the cultures were dosed with Test Articles. A stock solution of 0.1% tazarotene (2.83 mM at 99.5% purity) in OD/10% DMSO was prepared. For tazarotene benzoate, hydroxytazarotenic acid, keto tazarotenic acid, keto tazarotene, and tazarotene nicotinate, a 10 mg/mL stock solution (in DMSO) was already prepared. From this stock solution, a 2.83 mM working solution (in octyldodecanol) was prepared. All other tested compounds were resuspended in DMSO and OD to obtain a final concentration of 2.83 mM in OD/10% DMSO. On Day 12, the cultures were placed in 60 mm petri dishes containing 3 mL of RHE Growth Media (+VitC). Test articles (6 μl) were applied to triplicate cultures and cultures were incubated at 37° C. for 72 hours. Untreated and OD alone served as negative controls. At the end of the incubation period, the growth media was collected and stored at −20° C. The tissues were cut in half: one half was placed in 10% NBF for histology, and the other half was placed in RNAlater™ solution for RT-qPCR. RNA was isolated and concentrations were determined using a NanoDrop spectrophotometer. In addition to using the same amount of RNA for each sample, data was normalized to internal GAPDH mRNA levels and is expressed as relative quantification (RQ) to untreated controls. RNA extracts from each replicate were amplified using RT-qPCR. The relative gene expression of five biomarkers was determined: Keratin 10, Keratin 19, Filaggrin, Keratin 4, and Keratin 13."}},
  "note": "For some of these results: The name of at least one read-out is uncertain. Some entries share one result that the patent states for a list of compounds. Some ranges recur; such a range may be that of the whole group of compounds.",
  "data": [
    {"smiles": "CCOC(=O)c1ccc(C#Cc2ccc3c(c2)C(C)(C)CCS3)nc1", "note": "[Tazarotene, ethyl 6-[2-(4,4-dimethylthiochroman-6-yl)-ethynyl nicotinate]", "values": [
      {"measurement": "loss in rat plasma", "setting": "[1]", "value": "75-100%"},
      {"measurement": "loss in human plasma", "setting": "[2]; at 2 hours", "value": "< 10", "unit": "%"},
      {"measurement": "loss in human plasma", "setting": "[2]; by 8 hours", "value": "< 15", "unit": "%"},
      {"measurement": "Filaggrin Fold Change vs Untreated/OD controls (downregulation)", "setting": "[3]", "value": 3, "unit": "fold"},
      {"measurement": "K10 Fold Change vs Untreated/OD controls (downregulation)", "setting": "[3]", "value": 3, "unit": "fold"},
      {"measurement": "K4 Fold Change vs Untreated/OD controls (upregulation)", "setting": "[3]; listed as Tazarotene (3)", "value": 119, "unit": "fold"},
      {"measurement": "K19 Fold Change vs Untreated/OD controls (upregulation)", "setting": "[3]; listed as Tazarotene (3)", "value": 41, "unit": "fold"}
    ]}
  ]
}
